Inconclusive results and toxic doses are left out. The source holds more than one record for some entries. The list is limited to them. There may be further records. The values listed for one entry differ, and nothing given here explains why; dose, time, organism, isomer or construct need not be as stated for each record.
Tested on: BDF1 mice, P388 leukemia ip, median survival T/C
Assay: NCI In Vivo Anticancer Drug Screen. Data for tumor model P388 Leukemia (intraperitoneal) in B6D2F1 (BDF1) mice
Settings: endpoint: median survival time, higher = longer survival
In short: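 Compound-treated tumour-bearing mice were compared with vehicle-treated controls. Survival was recorded, and the value is the treated-group measurement divided by the control-group measurement (T/C).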

COc1cccc2c1C(=O)c1c(O)c3c(c(O)c1C2=O)C[C@@](O)(C(C)=O)C[C@@H]3OC(=O)CCN
T/C (dose: 12.5 mg/kg/injection, schedule: Q01DX009 (ip), vehicle: water): 100 % of control and 160 % of control

C[n+]1ccc(Nc2ccc(NC(=O)c3ccc(N)cc3)cc2)cc1
T/C (dose: 200.0 mg/kg/injection, schedule: Q04DX003 (ip), vehicle: water): 124 % of control and 150 % of control
T/C (dose: 400.0 mg/kg/injection, schedule: Q04DX003 (ip), vehicle: water): 87 % of control, 157 % of control, 184 % of control

COc1cccc2c1C(=O)c1c(O)c3c(c(O)c1C2=O)C[C@@](O)(/C(C)=N/NC(=O)c1ccc(Cl)c(Cl)c1)C[C@@H]3OC1CC(N)C(O)C(C)O1 (stereo partly drawn)
T/C (dose: 0.25 mg/kg/injection, schedule: Q01DX009 (ip), vehicle: water): 107 % of control and 163 % of control

CC(CN1CC(=O)NC(=O)C1)N1CC(=O)NC(=O)C1.[Cl-].[Pt+4] (stereo not drawn)
T/C (dose: 400.0 mg/kg/injection, schedule: Q01DX009 (ip), vehicle: saline): 113 % of control and 183 % of control

COc1cccc2c1C(=O)c1c(O)c3c(c(O)c1C2=O)C[C@@](O)(/C(C)=N/NC(=O)c1ccc(N(C)C)cc1)C[C@@H]3OC1CC(N)C(O)C(C)O1 (stereo partly drawn)
T/C (dose: 0.5 mg/kg/injection, schedule: Q01DX009 (ip), vehicle: water): 104 % of control and 194 % of control

C[n+]1ccc(Nc2ccc(NC(=O)c3ccc(Nc4cc[n+](C)c5ccc([N+](=O)[O-])cc45)cc3[N+](=O)[O-])cc2)cc1
T/C (dose: 50.0 mg/kg/injection, schedule: Q04DX003 (ip), vehicle: saline): 124 % of control and 165 % of control
T/C (dose: 400.0 mg/kg/injection, schedule: Q04DX003 (ip), vehicle: saline): 105 % of control and 184 % of control

— PubChem BioAssay AID328 (DTP/NCI, 2004)
